Screen size: about 110,000 compounds; about 230 (0.21%) showed an effect of 50% or more. The list shows a part of the results.
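Also: 30 min substrate incubation versus DMSO and 10 µM JCP410 controls.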

The target of the test is DPAP1 (Plasmodium falciparum, UniProt Q8IIJ9). The test can be described thus: primary screen, percent inhibition; read by cleavage of a fluorogenic dipeptide substrate; higher = more effect of the substance. Further details: species or system P. falciparum D10 trophozoite lysates; single well.
Sequence of DPAP1 (Q8IIJ9 whole entry, looked up): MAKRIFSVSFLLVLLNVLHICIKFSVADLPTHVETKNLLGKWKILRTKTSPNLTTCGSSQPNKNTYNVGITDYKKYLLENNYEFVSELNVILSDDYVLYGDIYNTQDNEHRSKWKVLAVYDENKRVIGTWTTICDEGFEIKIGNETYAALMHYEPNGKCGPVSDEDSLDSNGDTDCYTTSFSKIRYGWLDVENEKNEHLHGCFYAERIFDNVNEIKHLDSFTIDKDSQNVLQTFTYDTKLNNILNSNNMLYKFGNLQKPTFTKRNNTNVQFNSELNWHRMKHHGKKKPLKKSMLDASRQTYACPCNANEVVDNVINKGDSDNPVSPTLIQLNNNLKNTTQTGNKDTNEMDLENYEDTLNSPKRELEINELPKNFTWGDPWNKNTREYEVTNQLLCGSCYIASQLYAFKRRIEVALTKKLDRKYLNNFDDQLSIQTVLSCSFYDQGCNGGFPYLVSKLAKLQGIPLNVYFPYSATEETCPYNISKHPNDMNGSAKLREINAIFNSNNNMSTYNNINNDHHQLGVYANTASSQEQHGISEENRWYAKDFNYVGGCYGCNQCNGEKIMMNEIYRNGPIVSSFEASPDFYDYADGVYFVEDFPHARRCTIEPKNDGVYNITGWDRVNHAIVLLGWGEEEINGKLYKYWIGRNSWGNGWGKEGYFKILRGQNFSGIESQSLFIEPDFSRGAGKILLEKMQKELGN
In the case of `COc1ccc(-c2cc(C(=O)NCCN3CCOCC3)c3ccccc3n2)cc1OC`, the “% Inhibition @ 10 uM” value is -1.61%.
As for `O=C(Nc1ccc(S(=O)(=O)Nc2nccs2)cc1)Nc1cccc(Cl)c1`, the figure is -5.13%; as for `CCCC(=O)NC(c1ccc(OC)cc1)c1c(O)ccc2ccccc12` (centres unmarked), 1.86%.
As for `O=C(O)C1CCCCC1C(=O)Nc1ccc(Cl)c(Cl)c1` (centres unmarked), the figure is -11.4%; as for `CCN1C(=O)N/C(=C/c2ccc(OCc3cccc(C(=O)O)c3)c(Cl)c2)C1=O`, 0.795%.
As for `CCOC(=O)C1CCCN(Cc2ccc(F)cc2F)C1` (centres unmarked), the figure is 6.18%; as for `CC1=C(C(=O)OCc2ccc(C)cc2)C(c2cccc(Cl)c2)CC(=O)N1` (centres unmarked), 0.8%; as for `Nc1nnc(CC(=O)N2CCOCC2)o1`, 0.558%.
For the molecule `OCCN1CCN(Cc2ccc(F)c(Br)c2)CC1`, the “% Inhibition @ 10 uM” value is -3.04%.
On to `O=C(O)c1ccccc1C(=O)OCc1ccccc1`, for which the “% Inhibition @ 10 uM” value is reported as 5.98%.
As for `CCOc1ccc(CNC(=O)C2CCCN(S(=O)(=O)N3CCC(C)CC3)C2)cc1OC` (centres unmarked), the figure is 0.387%; as for `CC1=NCCn2cccc21`, -0.128%.
With `CC(C)=C1C2C=CC1C1C(=O)N(c3cccc4ccccc34)C(=O)C21` (centres unmarked), the “% Inhibition @ 10 uM” value is -0.413%.
As for `O=C1/C(=C/c2ccc3nccnc3c2)CC/C1=C\c1ccc2nccnc2c1`, the figure is -0.503%.
As for `O=C(NCCc1ccccc1)C1CCN(S(=O)(=O)c2cccc3nonc23)CC1`, the figure is -5.88%; as for `O=C(Nc1ccccc1F)c1ccc([N+](=O)[O-])o1`, 3.47%.
The result for `Cn1c(C(F)(F)F)nc2ccccc21` reads -2.37%.
As to `O=C(CC(NCc1ccccc1)c1ccccc1O)NCc1ccccc1` (centres unmarked), the “% Inhibition @ 10 uM” value worked out at 12%.
Turning to `Cc1ccnc(SCC(=O)N2CCC(c3c[nH]c4ccccc34)(c3c[nH]c4ccccc34)CC2)n1`, the “% Inhibition @ 10 uM” value was 4.22%.
Turning to `COc1ccc(Cl)cc1S(=O)(=O)N1CCC(c2nnc(-c3ccc(C)cc3)o2)CC1`, the “% Inhibition @ 10 uM” value stood at 17.7%.
For `CCc1ccc(CN(C(=O)c2cc(=O)c3cc(C)c(C)cc3o2)C2CCS(=O)(=O)C2)cc1` (centres unmarked), the “% Inhibition @ 10 uM” value is given as -1.47%.
`CCN(CC)c1ccc(NC(=O)C2CCCCC2)cc1`: the “% Inhibition @ 10 uM” value is recorded as 0.83%.
Turning to `CCOc1ccc2[nH]c(SCc3c(F)c(F)c(F)c(F)c3F)nc2c1`, the “% Inhibition @ 10 uM” value was -0.129%.
With `Clc1cccc(N2CCN(Cc3ccc4c(c3)OCO4)CC2)c1`, the “% Inhibition @ 10 uM” value is -0.127%.
As for `COc1ccc(OCCNC(=O)Nc2cc(F)c(F)cc2Cl)cc1`, the figure is -3.04%.
The result for `CCN1c2ccccc2C(c2ccccc2)=C(C(N)=O)C1C` (centres unmarked) reads -5.3%; that for `CCOC(=O)c1cc(-c2ccc(C)cc2)n(CCC(=O)NCc2cccnc2)c1C`, 3.32%.
In the case of `O=C(CSc1ccccc1C(=O)O)c1ccc(Cl)cc1`, the “% Inhibition @ 10 uM” value is reported as -2.58%.
The result for `CCCc1nc(C)cc(N2CCC(C)CC2)n1` reads -2.88%.
On to `O=C(O)c1ccccc1C(=O)N1CCN(C(=O)c2ccccc2C(=O)O)CC1`, for which the “% Inhibition @ 10 uM” value is -1.4%.
The result for `CC(NC(=O)Cn1ccc2cc(S(=O)(=O)N3CCCC3)ccc21)c1ccccc1` (centres unmarked) reads -1.26%.
Turning to `O=C(C1CC2CCC1C2)N1CCN(c2cccc(C(F)(F)F)c2)CC1` (centres unmarked), the “% Inhibition @ 10 uM” value is listed as 3.32%.
The result for `Cc1ccc(N2C(=O)N(c3ccccc3C)C3CS(=O)(=O)CC32)cc1` (centres unmarked) reads 3.86%.
As for `c1ccc2c(c1)CCCC2NCc1c[nH]c2ccccc12` (centres unmarked), the figure is -5.48%; as for `N#C/C(=C\c1cccs1)c1nc(-c2ccccc2)cs1`, -1.97%; as for `c1ccc(-c2cc(NCCN3CCOCC3)n3c(n2)nc2ccccc23)cc1`, 0.635%.
As to `O=C(N/C(=C\c1ccco1)C(=O)N1CCOCC1)c1ccco1`, the “% Inhibition @ 10 uM” value came out at 7.1%.
For `Cc1cc(/C=C2\SC(=O)N(C)C2=O)c(C)n1-c1cccc(C(=O)O)c1`, the “% Inhibition @ 10 uM” value was found to be 0.484%.
For the molecule `Cn1c(CCCNC(=O)c2ccc(Cl)cc2)nc2ccccc21`, the “% Inhibition @ 10 uM” value was -2.01%.
As for `CC1C(CN2CCOCC2)=C(c2ccccc2)Oc2ccccc21` (centres unmarked), the figure is -4.43%.
As for `CCOc1ccccc1NC(=O)C1=C(C)NC(=O)NC1c1ccccc1OC` (centres unmarked), the figure is -4.39%.
As for `CCCCO/C(O)=C1\C(C)=NC2=C(C(=O)CCC2)C1c1cccc(Cl)c1Cl` (centres unmarked), the “% Inhibition @ 10 uM” value was found to be 7.58%.
As for `COc1cc(C(=O)N2CCN(C(=O)COc3ccc(Cl)cc3)CC2)cc(OC)c1OC`, the figure is -1.6%; as for `Cc1ccc2n1CCn1cc(-c3ccccc3)cc1-2`, 2.94%; as for `CCCCN(C)C(=O)c1ccc(Br)o1`, -0.294%.
As for `Cc1noc(C)c1S(=O)(=O)NC1CCCCCC1`, the figure is -6.91%; as for `COc1ccc(S(=O)(=O)Nn2cnnc2)cc1`, 0.736%; as for `O=[N+]([O-])c1ccc(N2CCCC2)c(Cl)c1`, 0.00784%.
Turning to `NS(=O)(=O)c1ccc(CCNC(=O)CN2C(=O)c3ccccc3C2=O)cc1`, the “% Inhibition @ 10 uM” value is given as -9.24%.
The result for `CC(NC1CCN(CCc2ccccc2)CC1)c1ccc(F)cc1` (centres unmarked) reads -3.15%.
The result for `Cc1ccc(CNC(=O)c2ccccc2C(=O)NCc2ccc(C)cc2)cc1` reads 0.389%; that for `O=C(NCCCN1CCCC1=O)c1cc2c(s1)-c1ccccc1OC2`, -1.37%.
Consider `CCCNC(=O)C(Sc1ccccc1)c1ccccc1` (centres unmarked), for which the “% Inhibition @ 10 uM” value is -2.8%.
The result for `CC(C)(C)c1cc(-c2cc(C(C)(C)C)[nH]n2)[nH]n1` reads 4.17%; that for `CCOC(=O)c1nn(-c2ccc(F)c(Cl)c2)cc1O`, 0.147%; that for `Cc1nn(CC(=O)N2CCCCCC2)c(=O)c2cc3sccc3n12`, -5.19%.
As for `Cc1nc2sccn2c(=O)c1S(=O)(=O)NCC(C)c1ccccc1` (centres unmarked), the “% Inhibition @ 10 uM” value was found to be 2%.
The result for `COc1ccc(C2CC3=Nc4ccccc4NC(c4cccs4)C3=C(O)C2)cc1OC` (centres unmarked) reads 2.36%; that for `COc1ccccc1-c1coc2cc(OCc3cc(Cl)cc4c3OCOC4)ccc2c1=O`, -1.11%; that for `Cc1ccc(S(=O)(=O)c2cnc(SCC(=O)NCc3ccccc3)nc2N)cc1`, 2.75%.
On to `Clc1ccc(-c2nnc(-c3ccc(-c4ccccc4)cc3)o2)cc1`, for which the “% Inhibition @ 10 uM” value is reported as -8.01%.
The result for `CCN(CC)CCC(=O)NC(C)(C)Cc1ccc(O)cc1` reads -0.703%.
Turning to `CN1C(=O)C2Cc3c([nH]c4ccccc34)C(c3ccccc3)N2C1=S` (centres unmarked), the “% Inhibition @ 10 uM” value is 3.58%.
The result for `Cn1c(=O)c2c(ncn2CC(=O)Nc2nnc(CC(C)(C)C)s2)n(C)c1=O` reads 3.54%; that for `CCN(CC)c1ccc(C2C3=C(O)CC(C)(C)CC3=Nc3ccccc3N2C(=O)C(C)C)cc1` (centres unmarked), -0.267%.
The result for `Cc1oc(-c2ccc(Cl)cc2)nc1CS(=O)CC(=O)NCc1ccccn1` (centres unmarked) reads -1.05%; that for `CCSc1nnc(NC(=O)c2cc(=O)c3ccc(C)c(C)c3o2)s1`, 5.06%; that for `CN1CCC(N(C)CC2CC=CCC2)CC1` (centres unmarked), 3.15%.
As for `CC(C)(C)c1ccc(C(=O)O/N=C(\N)Cc2cccs2)cc1`, the figure is -6.95%.
For `Nc1ccc2nc(O)nc(-c3ccccc3)c2c1`, the “% Inhibition @ 10 uM” value is -3.85%.
As for `COc1cc(C(=O)NC2(C(F)(F)F)C(=O)Nc3c2c(=O)n(C)c(=O)n3C)cc(OC)c1OC` (centres unmarked), the figure is -5.2%.
As for `O=C(NCCCc1ccccc1)C(Cc1ccccc1)N1Cc2ccccc2C1=O` (centres unmarked), the figure is 3.87%; as for `O=C(O)c1c(CNCCCc2ccccc2)c2ccccc2n1Cc1ccccc1F`, -1.44%.
As for `O=C(CCc1nnc2n(CCc3ccccc3)c(=O)c3ccccc3n12)NCc1ccco1`, the figure is -2.42%.
Take `CCC(C)c1ccc(NC(=O)CSc2ncccn2)cc1` (centres unmarked): the “% Inhibition @ 10 uM” value is on record as -7.75%.
With `Cc1cccc(CCNC(=O)c2cn(C3CCCC3)c(=O)c3c2c2ccccc2n3C)c1`, the “% Inhibition @ 10 uM” value was determined as 5.06%.
As for `COc1cccc(CNc2nc3ccc(C)cc3n3cnnc23)c1`, the figure is -5.29%; as for `CCN1CCCC1CNC(=O)c1ccc2c(c1)sc1nc(-c3ccc(F)cc3)cn12` (centres unmarked), 9.08%.
The result for `Cc1ccc(S(N)(=O)=O)cc1NC(=O)c1ccc(S(=O)(=O)N(C)C)cc1` reads 4.74%.
Regarding `Cc1ccc(S(=O)(=O)N(CC(=O)NCc2ccccn2)c2ccc(C(C)C)cc2)cc1`, the “% Inhibition @ 10 uM” value is given as -13.5%.
Consider `O=C(CSCc1ccccc1)Nc1nnc(Cc2ccc(F)cc2)s1`, for which the “% Inhibition @ 10 uM” value is listed as 2.3%.
For `CC(C)c1ccc(-c2c(NCCN3CCN(Cc4ccccc4)CC3)c(=O)c2=O)cc1`, the “% Inhibition @ 10 uM” value was -3.17%.
On to `Cn1cccc1C(=O)C(Cl)(Cl)Cl`, for which the “% Inhibition @ 10 uM” value is on record as -1.88%.
Take `CCCCCOc1ccc(C(=O)NC(CC(C)C)C(=O)NCC#N)cc1` (centres unmarked): the “% Inhibition @ 10 uM” value is -4.72%.
As for `OC1(c2ccc(Br)cc2)CCN(Cc2cc(F)ccc2F)CC1`, the figure is -6.62%.
As to `O=C(Cc1cccc2ccccc12)Nc1cc(Cl)ccc1Cl`, the “% Inhibition @ 10 uM” value worked out at 5.09%.
In the case of `Cc1ccc(NS(=O)(=O)c2cc(C(=O)O)cc(C)c2C)cc1C`, the “% Inhibition @ 10 uM” value is -3.84%.
As for `O=C(NC1CCCc2ccccc21)c1ccccn1` (centres unmarked), the figure is -3.92%.
The result for `CCOc1ccc(C(=O)N2CCOCC2)cc1` reads -3.32%; that for `COc1cccc(/C=C/c2nc(C#N)c(N3CCOCC3)o2)c1`, -2.57%.
On to `COc1ccc(Br)cc1CNC(=O)CCCN1C(=O)CSc2nc(C)cc(C)c21`, for which the “% Inhibition @ 10 uM” value is -6.01%.
As for `C/C(=C\c1cc(C(=O)O)c(C)o1)CO`, the figure is -0.736%; as for `CS(=O)(=O)c1oc(-c2ccc(F)cc2)nc1S(=O)(=O)c1ccc(Br)cc1`, 5.29%; as for `Cc1ccc(Sc2c(C)nn(C(=O)CNS(=O)(=O)c3ccc(Cl)cc3)c2C)cc1`, 7.75%.
The result for `COc1cc(/C=C2/C(=N)N3OC(C)=CC3=NC2=O)cc(OC)c1OCCOc1ccc(C)c(C)c1` reads -1.43%; that for `CCC(C)NC(=O)CNC(=S)N(Cc1ccc(F)cc1)C1CCCCC1` (centres unmarked), -0.406%; that for `CN1CCN(c2nc(NCCO)c3ccccc3n2)CC1`, -17%.
As for `CN1c2ccccc2C(C)(C)C12C=Cc1c(ccc3ccccc13)O2` (centres unmarked), the figure is -2.5%.
In the case of `COc1ccc(C2OC(=O)CC2C(=O)NCCc2ccccc2)cc1OC` (centres unmarked), the “% Inhibition @ 10 uM” value is recorded as -2.92%.
As for `Cc1cccc(CN2CCN(c3ccc(F)cc3)CC2)c1`, the figure is -0.192%.
As to `CCC(C)(C)c1ccc(OCC(=O)Nc2cccc(C(=O)O)c2)cc1`, the “% Inhibition @ 10 uM” value came to 18.7%.
